Laboratory results as given in PubChem BioAssay AID720708 (National Center for Advancing Translational Sciences (NCATS), 2013).
Several values for one entry are separate records, joined by “and”; a condition that tells them apart may be missing. Equal entries are not always repeated. Out of some 360,000 compounds screened, about 660 (0.18%) were called active. This list was built around the results that the source calls inconclusive (neither active nor inactive); the mix of calls is not that of the screen. The call rests on the fitted dose curve; in most records, active means well fitted inhibition curve with a large enough effect; inconclusive means small, poorly fitted or top-dose-only effect; inactive means no such curve, though single readings can be large or run the other way. Potencies of inconclusive entries are doubtful fits and often do not repeat.

biological target: Rap guanine nucleotide exchange factor 4 (Homo sapiens) (UniProt Q8WZA2); test: qHTS for Antagonist of cAMP-regulated guanine nucleotide exchange factor 2 (EPAC2): primary screen; details: EPAC2 GEF exchange of Rap1B-BODIPY-GDP, fluorescence; activity, negative = inhibition: at 114 µM (top of the series) unless noted; further: nearly all actives have a fitted effect of over 45% in size
On the % scale 0 is the no-effect control and ±100 the full control effect; potency means the concentration at half of the fitted maximal effect; tags describe the fitted curve by direction and shape.

Chain of UniProt Q8WZA2 (Q8WZA2 whole entry, looked up): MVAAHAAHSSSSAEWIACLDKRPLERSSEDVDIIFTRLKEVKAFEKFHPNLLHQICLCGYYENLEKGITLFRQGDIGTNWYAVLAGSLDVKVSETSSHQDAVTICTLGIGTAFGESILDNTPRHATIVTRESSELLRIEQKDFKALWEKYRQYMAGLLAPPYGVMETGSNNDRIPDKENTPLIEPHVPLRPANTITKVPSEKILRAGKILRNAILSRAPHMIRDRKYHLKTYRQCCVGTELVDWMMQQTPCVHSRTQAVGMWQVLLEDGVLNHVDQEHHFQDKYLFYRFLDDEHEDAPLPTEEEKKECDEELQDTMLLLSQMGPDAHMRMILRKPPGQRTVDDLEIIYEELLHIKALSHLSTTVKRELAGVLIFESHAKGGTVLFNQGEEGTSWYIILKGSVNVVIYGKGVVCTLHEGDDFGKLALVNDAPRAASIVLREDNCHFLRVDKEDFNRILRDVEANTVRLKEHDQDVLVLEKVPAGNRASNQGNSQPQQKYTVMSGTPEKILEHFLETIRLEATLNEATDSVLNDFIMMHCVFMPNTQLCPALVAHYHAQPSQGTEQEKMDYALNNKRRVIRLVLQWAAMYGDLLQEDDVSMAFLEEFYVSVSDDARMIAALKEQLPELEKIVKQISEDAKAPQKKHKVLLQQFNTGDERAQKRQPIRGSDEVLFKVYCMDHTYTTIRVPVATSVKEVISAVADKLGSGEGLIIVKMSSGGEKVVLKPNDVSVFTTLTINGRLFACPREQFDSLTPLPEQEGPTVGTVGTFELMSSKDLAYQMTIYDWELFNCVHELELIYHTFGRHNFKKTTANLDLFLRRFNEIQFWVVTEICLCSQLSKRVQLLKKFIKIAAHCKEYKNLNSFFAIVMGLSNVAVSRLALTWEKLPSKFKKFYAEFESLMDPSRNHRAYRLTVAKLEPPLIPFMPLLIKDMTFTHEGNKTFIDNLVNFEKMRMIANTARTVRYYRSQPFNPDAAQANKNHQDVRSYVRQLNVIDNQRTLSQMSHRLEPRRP

SMILES	activity, negative = inhibition	Potency
Cc1c(Br)c(O)c(Br)c(O)c1/C=N/n1c(-c2ccccc2)n[nH]c1=S	inactive: -12.9%	–
CCn1c(N)c(C(=O)NC)sc1=S	inactive: 12%	–
CCOC(=O)C1=C(N)OC2=C(C(=O)CCC2)C1c1ccc2c(c1)OCO2 (centres undefined)	–	inconclusive: 50.1 µM [inhibitor, partial curve]
COc1ccccc1-c1nc2ccccc2n(CC(C)C)c1=O	–	inconclusive: 50.1 µM [inhibitor, partial curve]
CCOc1ccc(NC(=O)Nc2ccon2)cc1	inactive: -8.5%	–
CCN(CC)S(=O)(=O)c1c(Br)cc(C)cc1Br	–	inconclusive: 39.8 µM [inhibitor, partial curve]
C=CSc1sc(Cl)c(N(CC)CC)c1[N+](=O)[O-]	–	inconclusive: 20 µM [inhibitor, full curve]
Cc1onc(-c2ccccc2)c1C(=O)Nc1cc(C(F)(F)F)ccc1N1CCOCC1	–	inconclusive: 35.5 µM [inhibitor, full curve, poor fit]
O=c1c([N+](=O)[O-])c(O)c2ccccc2n1Cc1ccccc1	–	inconclusive: 50.1 µM [inhibitor, partial curve]
CC(C)c1ccc(N(CCc2ccccn2)C(=O)C(C)(C)C)cc1	–	inconclusive: 56.2 µM [inhibitor, partial curve]
CCC(C)CCCCCCCCCCC(=O)O (centres undefined)	–	inconclusive: 44.7 µM [inhibitor, full curve]
COC(=O)c1ccccc1-c1c2ccc(=N)cc-2oc2cc(N)ccc12	–	inconclusive: 20 µM [inhibitor, single point]
COc1ccc(C(C)(O)c2nc(-c3ccc(F)cc3OC)cs2)cc1 (centres undefined)	–	inconclusive: 89.1 µM [inhibitor, partial curve]
CCOC(=O)c1c(NC(=S)Nc2ccccc2)sc2c1CCN(CC)C2	inactive: -4.92%	–
CCOC(=O)c1c(-c2ccccc2)csc1NC(=O)/C(C#N)=C\c1ccc(O)c(OC)c1	–	inconclusive: 79.4 µM [inhibitor, single point]
CSC1=NC2(C)CCCCC2C12C=CC(=O)C=C2 (centres undefined)	–	inconclusive: 39.8 µM [inhibitor, single point]
CCOC(=O)CSc1nc(C(C)C)nc2sc(C)c(C)c12	–	inconclusive: 39.8 µM [inhibitor, full curve]
C=CCn1c(C)csc1=Nc1ccccc1C	–	inconclusive: 79.4 µM [inhibitor, partial curve]
O=[N+]([O-])C(=C1SCCS1)C(=C(Cl)Cl)N1CCCCC1	–	inconclusive: 44.7 µM [inhibitor, partial curve]
COc1ccccc1N1CCN(C(c2cc3cc(C)ccc3[nH]c2=O)c2nnnn2C2CCCC2)CC1 (centres undefined)	inactive: 6.79%	–
O=C(NNC(=O)c1ccc(NC(=O)C2CC2)cc1)c1ccc(F)cc1	inactive: 6.83%	–
O=C1N(c2ccccc2C(F)(F)F)O[C@]1(c1ccccc1)C1CCCCC1	–	inconclusive: 20 µM [inhibitor, full curve]
O=[N+]([O-])c1ccc(S(=O)(=O)Nc2nc(-c3ccccc3)cs2)cc1	–	inconclusive: 35.5 µM [inhibitor, partial curve]

SMILES	activity, negative = inhibition	Potency
CCC1Nc2ncnc(N3CCCCC3)c2N(Cc2ccc(C)cc2)C1=O (centres undefined)	–	inconclusive: 31.6 µM [inhibitor, full curve, poor fit] and inconclusive: 31.6 µM [inhibitor, partial curve]
Cn1nc(C(F)(F)F)c(-c2ccc(Br)cc2)c1NC(=O)c1ccco1	–	inconclusive: 56.2 µM [inhibitor, partial curve]
COc1ccc2c3n([n+]([O-])c2c1)CCN=C3c1ccc(C)cc1	–	inconclusive: 3.55 µM [inhibitor, full curve, poor fit]
O=C(c1ccc(-c2ccccc2Cl)o1)N1CCCCCCC1	–	inconclusive: 22.4 µM [inhibitor, full curve]
Cc1cc(Cl)ccc1OCC(=O)NNC(=O)C1CCN(c2ncnc3sc(C)c(C)c23)CC1	inactive: -17.6%	–
Cc1ccc2c(C)c(C(=O)N3CCC(O)(c4ccccc4)CC3)oc2c1C	inactive: -5.98%	–
COc1ccc([C@H]2CC(=O)C=C(c3ccc(C)cc3)C2)cc1OC	–	inconclusive: 56.2 µM [inhibitor, partial curve]
O=S1(=O)N=C(N(Cc2cccs2)c2ccc(O)cc2)c2ccccc21	–	inconclusive: 56.2 µM [inhibitor, partial curve]
O=C(CCCc1c[nH]c2ccccc12)N1CCOCC1	inactive: 0.542%	–
COc1ccc(CN(C)C(=O)c2ccccc2Sc2ccccc2C#N)c(OC)c1	–	inconclusive: 50.1 µM [inhibitor, partial curve]
CCC(C)Sc1cc(-c2nc3ccccn3c2NC2CCCCC2)ccc1OC (centres undefined)	–	inactive
C/C(=N\NC(=O)c1cccs1)c1cccnc1	inactive: 2.67%	–
Cc1ccc2nc(-c3ccccc3)c(Cc3ccccn3)n2c1	–	inconclusive: 100 µM [inhibitor, single point]
Cc1cc(SCC(=O)N(C)C2CCCCC2)nc2ccccc12	–	inconclusive: 50.1 µM [inhibitor, partial curve]
COC(=O)CCC(=O)NC(=S)Nc1ccc(S(=O)(=O)Nc2cc(OC)nc(OC)n2)cc1	inactive: 8.51%	–
Cn1nc(-c2ccccn2)nc2c(=O)n(C)c(=O)nc1-2	–	inconclusive: 112 µM [inhibitor, partial curve, poor fit]
O=C(O)c1cc([N+](=O)[O-])cc([N+](=O)[O-])c1N1CCN(c2cccc(C(F)(F)F)c2)CC1	–	inconclusive: 8.91 µM [inhibitor, partial curve]
COc1ccc(C(CCN(Cc2ccc(OC)c(OC)c2)C(=O)CCl)c2ccccc2)cc1 (centres undefined)	inactive: -0.0248%	–
CC1(C(=O)NS(=O)(=O)c2ccccc2)CCN1C(=O)C1(c2ccccc2)CCCC1 (centres undefined)	–	inconclusive: 25.1 µM [inhibitor, full curve]
CC(C)=Cc1oc2ccc([N+](=O)[O-])cc2c1N1CC(C)OC(C)C1 (centres undefined)	–	inconclusive: 89.1 µM [inhibitor, partial curve, poor fit]
Cc1nc(N2CCC(C)CC2)c2c(C)c(C(=O)Nc3cc(F)ccc3C)sc2n1	–	inconclusive: 50.1 µM [inhibitor, partial curve]
CCOc1ccc(S(=O)(=O)NC2CCCC2)cc1C	–	inconclusive: 50.1 µM [inhibitor, partial curve]
COc1ccc(C2=NOC(CNC(=S)N3CCOCC3)C2)cc1 (centres undefined)	–	inconclusive: 89.1 µM [inhibitor, single point]

SMILES	activity, negative = inhibition	Potency
Oc1ccccc1Cc1c(O)ccc2ccccc12	–	inconclusive: 50.1 µM [inhibitor, partial curve]
COC(=O)CC(NC(=S)NC(=O)c1ccccc1)c1ccc(Br)cc1 (centres undefined)	–	inconclusive: 31.6 µM [inhibitor, partial curve]
CCN(Cc1ccccc1)c1ccccc1	–	inconclusive: 39.8 µM [inhibitor, partial curve]
CSc1cccc(NC(=S)N(Cc2ccc(C)cc2)Cc2cccnc2)c1	–	inconclusive: 44.7 µM [inhibitor, partial curve]
CCC(=O)NC(c1ccc(C)cc1)c1ccc2cccnc2c1O (centres undefined)	–	active: 15.8 µM
Cc1ccccc1C(=O)Nc1ccc(Br)c(C)n1	–	inconclusive: 63.1 µM [inhibitor, partial curve, poor fit]
c1ccc(-c2nnc(-c3ccncc3)o2)cc1	inactive: 7.75%	–
Nc1ccc(CSc2ccc(Cl)cc2)c(Cl)c1	–	inconclusive: 44.7 µM [inhibitor, partial curve]
CC(=O)N(c1ccccc1)C(C(=O)c1ccccc1)c1ccccc1 (centres undefined)	–	inconclusive: 56.2 µM [inhibitor, partial curve]
CC(C)Nc1nc(Cl)nc(NN(C)c2nc(N(C)C)nc(N(C)C)n2)n1	–	inconclusive: 89.1 µM [inhibitor, partial curve]
CC(/C=C1\SC(=S)N(C(C(=O)O)c2ccccc2)C1=O)=C\c1ccccc1 (centres undefined)	–	inconclusive: 56.2 µM [inhibitor, partial curve]
Cc1cc(-c2nn(-c3ccccc3F)cc2CN2CCCC(O)C2)c(C)s1 (centres undefined)	–	inconclusive: 39.8 µM [inhibitor, full curve]
CC(C)NC(=O)C1CCN(C2CCN(Cc3nc4ccccc4s3)CC2)CC1	inactive: 5.79%	–
CCCCc1cc(C(=O)Cc2ccccn2)c(O)cc1O	–	inconclusive: 35.5 µM [inhibitor, partial curve]
O=C1C(Cl)=C(NCCCO)C(=O)c2ccccc21	inactive: -12.2%	–
CCCCCCCCCc1conc1C(=O)CP(=O)(OC)OC	–	inconclusive: 35.5 µM [inhibitor, partial curve]
CC1=C(/C=C/C(C)=C/C=C/C(C)=C\C(=O)O)C(C)(C)CCC1	–	inconclusive: 79.4 µM [inhibitor, partial curve]
COC(=O)c1ccc2nc(-c3ccccc3)c(Cc3ccc(C)cc3)n2c1	–	inconclusive: 16.8 µM [inhibitor, full curve]
COCCNC(=O)/C(C#N)=C/c1c(N2CCN(c3cccc(Cl)c3)CC2)nc2c(C)cccn2c1=O	inactive: 2.33%	–
Cn1nc(C(=O)N2CCN(c3ccc(Cl)cc3)CC2)c2c1-c1ccccc1S(=O)(=O)C2	inconclusive: -4.3% [inhibitor]	–
COc1ccc(-n2nc(C#N)c(Cl)cc2=O)cc1	–	inconclusive: 17.8 µM [inhibitor, full curve, poor fit]
O=C(NCCc1ccccc1)C(NS(=O)(=O)c1cccc2nsnc12)c1ccccc1 (centres undefined)	–	inconclusive: 100 µM [inhibitor, single point]
CC1(C(=O)NS(=O)(=O)c2ccc(F)cc2F)CCN1C(=O)C1(c2ccc(Cl)cc2)CCC1 (centres undefined)	–	active: 35.5 µM
